# Test results published in the supplement of paper PMC11417369.
# ± gives the standard deviation of the averaged measurements. Some of the results follow.
# Test system: PfAP2-EXP AP2 domain (GST-tagged)
# Assay: gcPBM binding intensity (ln(normalized median fluorescence intensity)); higher = stronger DNA binding
# Summary of the method: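 Each value is the highest Masliner-normalised natural-log median intensity across replicate spots of either orientation of a probe. The probes were primer-extended double-stranded 36-bp intergenic genomic sequences on an Agilent 4 × 180k array, alongside negative controls, exposed for 1 h to GST-tagged P. falciparum DNA-binding domains expressed in E. coli. Bound protein was picked up with Alexa488 anti-GST antibody and scanned at 488 nm.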
row,Sequence,gcPBM binding intensity (ln)
1,TTTTTTTTTTTTTTTTGTCCGTACTGCTTTGTGTTT [XGTACX_site3687],8.26 ± 0.69
2,ATATATATATAGTGCACACTTAAGAATATAAAGAGG [CACACA_site1151],9.98 ± 0.14
3,CTATAAATATTTTATTGTACACACTTTTTATGAATG [XGTACX_site6711],8.88 ± 0.49
4,AAAATTTTTAGTTATACACACAACATAGAAAATATT [CACACA_site328],8.67 ± 0.41
5,CACATACACCCATACACACACATATATATTAAGATA [CACACA_site4459],8.66 ± 0.38
6,AAACTTAATATCGGTACACACACAAGATAAGAATTA [CACACA_site8200],8.7 ± 0.66
7,AATACATACAGACACACACACACATATATATATATA [CACACA_site3558],10 ± 0.22
8,AATCACAACAGACACACACACAAAAAAAAAAAAAAA [CACACA_site1442],8.15 ± 0.64
9,TTAATATAATAGAAGTGTACACACATATTTATGTGT [XGTACX_site6672],8.8 ± 0.19
10,ATATGTTATATAAATATATATATATATATATATATA [TGCATGCA_negctrl_site594],10.1 ± 0.33
11,ATATATATATATATAGTGCATAAAATAAGTTTCTAA,10.2 ± 0.28
12,TATTTATAAACATACGCACACATTAAAATATATATA [CACACA_site6051],8.65 ± 0.48
13,TAATAATAAAAATAAACACACATATATCTGTATTTA [CACACA_site5572],8.06 ± 0.4
14,GGTGGAAACAATTACACACACACAAAAAAAAAAAAA [CACACA_site3208],8.46 ± 0.54
15,TTTTTATAAATACACATAAATATATATATATATATA [TGCATGCA_negctrl_site393],10 ± 0.47
16,ACACAAAAAAATATATATATATATATATATATGTTA [CACACA_negctrl_site55],8.6 ± 0.11
17,ATGCATTATTAGAATACACACCATACGCATATTTAT [CACACA_site4319],8.83 ± 0.37
18,AAAAAAAAAAAAAAATGTACATTTTGAAAGGATATA [XGTACX_site8217],8.46 ± 0.32
19,TAAAGAAAAAGAGAATGTACATGAGAAAAGTATACT [XGTACX_site7472],9.28 ± 0.42
20,AAAAAAGATAATTATGCACACACACCCACCCACCCA [CACACA_site8825],9.57 ± 0.41
21,AGAAAAAAAAAAAAATGTACAGACTTTTTCTTATAA [XGTACX_site6481],8.44 ± 0.59
22,ATATACACACAAAAACGTACACATATATATATGTAT [XGTACX_site2673],8.76 ± 0.33

row,Sequence,gcPBM binding intensity (ln)
1,GGTATAATAATATATAGTACACACAAAAATGGAAGT [XGTACX_site7058],9.22 ± 0.54
2,AAAAAAAAAAAAAGCACACATATAAATATGAATAAA [CACACA_site1393],8.4 ± 0.61
3,AAAAAAAAAAAAAACACACACATACACCCAAAAATG [CACACA_site4223],8.66 ± 0.45
4,CAATCATGGGTTTACACACACATGCATGTGAAAATT [CACACA_site1349],9.23 ± 0.56
5,AAAAAAAAAAAAAAAAAAAAAAAAATATATAATTTA [CACACA_negctrl_site583],9.1 ± 0.071
6,AACCAAACAAATAAACGTACAAACATTACATATATT [XGTACX_site2265],8.41 ± 0.43
7,ATTTTTGCAGTAATTAAATAGACAAAATGAAAAAAA [CACACA_negctrl_site1537],8.55 ± 0.42
8,CATATTAAAAATTATTGTACATATTAATGAATATAA [XGTACX_site2734],8.29 ± 0.22
9,GATGATAATAAATTTATATATAATATTATCTTATGT [GTGCAC_negctrl_site672],8.34 ± 0.42
10,AAAATAATATTTAATACACACATAATTTTAATATAA [CACACA_site4588],8.21 ± 0.38
11,TACTTATATTATTTTATTATTAAATTTAAAACGAAA [CACACA_negctrl_site736],8.35 ± 0.42
12,ACAATAAAGAAGTGTACACATATATCAATAAAAAAA [CACACA_site5228],8.82 ± 0.32
13,TTATATACATAAAAATGTACTTTTTATAAAATATAT [XGTACX_site8281],8.21 ± 0.18
14,AAGTTAGTATTCTGCTGTACTTCTATATATAAGTGT [XGTACX_site7678],8.41 ± 0.3
15,CAATAATTTTTTAAATGTACTTTATTATAATTTAAT [XGTACX_site135],8.16 ± 0.38
16,TATATATAATACAGTATGCACTATTTTTATTAAAAA,8.46 ± 0.22
17,GAATGAATCAATGTTTGTACTCAACAAATTATAAGG [XGTACX_site5122],8.47 ± 0.32
18,GCCTTCCTTCTAAATGCACACGGAAAGTATAAATGT [CACACA_site8797],8.88 ± 0.15
19,ACAACATTTCTCAAATGTACATAATATAATTTATAT [XGTACX_site3224],8.51 ± 0.23
20,TATTAATTCTTAAATTTTTTTTTTTAATTCCTAGGA [CACACA_negctrl_site879],7.93 ± 0.49
21,GTCTAACAACCAAACGCACACACACTAATAAAAAAA [CACACA_site8026],8.71 ± 0.22
22,TTTTCTTACATCTTATAAAAAAAAATATATATTATA [GTGCAC_negctrl_site118],8.17 ± 0.27

row,Sequence,gcPBM binding intensity (ln)
1,TAATATATATATTTATGTACATATAAATTTTCTCCT [XGTACX_site4496],8.66 ± 0.4
2,TATTTTAAAACAAAAATATAATTTCATAAAAATATA [CACACA_negctrl_site394],8.01 ± 0.44
3,ATATATCAAAAATGATGACATAAATATATTAATTTA [TGCATGCA_negctrl_site259],8.11 ± 0.3
4,ATAAAATAATCTTATGCACACCAAAAATTTATATAA [CACACA_site8332],8.53 ± 0.25
5,TATCTGTATGTATGTACACACAAAAAATGGAATATA [CACACA_site5947],8.7 ± 0.38
6,TTTTTGTAAAATAAACGTACAAAACAATTGTTCATT [XGTACX_site6537],8.67 ± 0.35
7,TATAAACCAATGAACACACAAACATATATATATATA [CACACA_site3168],10.1 ± 0.36
8,TCTTTTTATATTTATTGTACATAAAAAATAAAACAT [XGTACX_site4073],8.47 ± 0.33
9,TTTTTTTTTCTTTCTTTCTTTTGTAAAAACCTCAAA [CACACA_negctrl_site723],8.46 ± 0.37
10,ATATGTATATATAAAAGTACGCGTAAAAAAAAAAAA [XGTACX_site5377],9.12 ± 0.51
11,TAAATATATAAATACACACACATACACAAAAAAAAA [CACACA_site5890],8.76 ± 0.46
12,TATACACCCTAAAATACACACACACCCACCCATATA [CACACA_site9380],9.07 ± 0.72
13,AAATACTGTACAAAGGTGCATAAAAAGTGGGGCATA,9.35 ± 0.028
14,TCAAAAGAAATAAAAACATGCATAAAAGTAAAAATA [TGCATGCA_site832],9.02 ± 0.45
15,AAATAATATATATACACACACACATATATATATACA [CACACA_site554],8.56 ± 0.53
16,TTATGATAATTTTGCACACACTTAGGAAAAATTATG [CACACA_site4949],8.57 ± 0.26
17,TGTTTTTCATAGTGCACACATAACCAAAAATAGTAT [CACACA_site3150],9.35 ± 0.44
18,ACGTATATTTTTACATGTACATATGTAAAAAATTTT [XGTACX_site4587],8.71 ± 0.36
19,TTTTATTTATCATACACACACAGAAAAAAAAAAAAA [CACACA_site158],8.62 ± 0.51
20,CCTTTCCTTTTATAAGTGCATATAACAAATGTATAC [GTGCAC_site9872],8.78 ± 0.23
21,GAATGTTTATTATATGCATGTTATATATATGAATAT [TGCATGCA_site4],8.71 ± 0.38
22,AATAATGAAAAATCAAATAACCTAAATTACAACTGT [XGTACX_negctrl_site65],8.43 ± 0.38

row,Sequence,gcPBM binding intensity (ln)
1,TAAATATAATAAAAGTGTACTTACACTTACATATAA [XGTACX_site1206],8.21 ± 0.33
2,TTTCACACTATTTCATGTACACATAAAATTATATAT [XGTACX_site8692],8.88 ± 0.23
3,TTGTATATATTTCCTTGTACGTAATAATTCTTATTG [XGTACX_site3938],8.82 ± 0.3
4,ATATAATAAGGTTAAGCACACATATTACATATATAA [CACACA_site9110],8.24 ± 0.33
5,AACAGATAAAAGGGTACACACATATATACATGTACA [CACACA_site225],8.65 ± 0.3
6,TTTTATTCCGTTTCAAAATAAGAAAAAAAAAAAAAT [CACACA_negctrl_site1199],8.26 ± 0.44
7,TACTTCTCATTTGTTGTTGTATTTTAGGCATACCCT [XGTACX_negctrl_site385],9.05 ± 0.35
8,AAAAATATAAATGACACACACTTAAAAACAAAGAAA [CACACA_site4540],8.87 ± 0.43
9,ATTTAAAAAAAAAAAAATAAATAACTTGAAAAACAA [GTGCAC_negctrl_site318],8.31 ± 0.45
10,CTTATATATACGTGCACACATATATATAAGATATAT [CACACA_site1752],8.96 ± 0.26
11,AAGGATAATAGGTACACATGCAATATTCATATATAC [TGCATGCA_site523],9.1 ± 0.24
12,ATGGCATAAATATATGCACACACAAAAAAAAAAAAA [CACACA_site7902],8.43 ± 0.48
13,ATATATATATGTATGTATATATATATATATATGTTT [CACACA_negctrl_site248],9.505 ± 0.064
14,TTTCTTTTTTTTTGAAGTACATAAAAATATAAAAAA [XGTACX_site311],8.28 ± 0.31
15,TAAATTTTTTCTTTTTGTACATATTTTAAAAATGTT [XGTACX_site7526],8.64 ± 0.54
16,AATATTATAAAATATTGTACTTAAAAAATTATTAAA [XGTACX_site2469],8.06 ± 0.3
17,AAAAAGAAAAAGAGCACACAAAAATATTTAACCTTT [CACACA_site2747],8.48 ± 0.63
18,GATAAATATTTAATATGTACATATATTATATATATA [XGTACX_site117],8.87 ± 0.014
19,GTTATATATGATGGAAGCACTTGGAAGAGGGAAATA [CACACA_negctrl_site1831],8.84 ± 0.45
20,TATATACACACCGTGTGTACATATACATTAACTGAA [XGTACX_site7120],8.61 ± 0.35
21,AAAAATAAAAAAATAAAAAATAAAAAAATAAAAAAT [CACACA_negctrl_site1425],8.32 ± 0.56
22,ATTAAAGTTATAAATTCACACATGTAAATGTATTTA [CACACA_site5279],8.19 ± 0.37
